Test results reported in PubChem BioAssay AID651820 (National Center for Advancing Translational Sciences (NCATS), 2012).
Values joined by “and” are separate entries in the source; they are usually repeats but may differ in a detail not shown here. Identical values can stand only once. Out of some 340,000 compounds screened, about 12,000 (3.5%) were called active. Inconclusive means that the source gave no clear call. Such entries were picked first, then a sample of the others. Calls follow the shape of the dose curve; as a rule, active = well fitted inhibition curve with a large enough effect; inconclusive = small, poorly fitted or top-dose-only effect, or another doubt; inactive = no such curve, though single readings can be large or run the other way. Potencies of inconclusive entries are doubtful fits and often do not repeat.

Assay: qHTS Assay for Inhibitors of Hepatitis C Virus (HCV)
Settings: Huh7.5.1 HCVcc-Cre (HCVcc is cell-culture hepatitis C virus) infection, luciferase reporter, 44 h; activity change, negative = inhibition: at 41.8 µM (top of the series) unless noted
Outline: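 HCVcc-Cre virus at an moi near 0.5 was added right after compound to cells cultured 4 h from seeding (1,000 cells/well). Luciferase activity was determined 44 h later, 15 min after substrate addition at RT.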
% is scaled to controls: 0 for no effect and ±100 for the full control effect; potency is read from the fitted curve at half-maximal effect; tags tell the direction and shape of the fitted curve.

Row | Compound | Potency | activity change, negative = inhibition
1 | COc1cc(/C=C(/C(=O)c2cccs2)c2nc3ccccc3[nH]2)ccc1O | inconclusive: 31.6 µM [inhibitor, single point] | 
2 | O=C(NCc1cccc(Cl)c1)c1ccc(-c2csnn2)cc1 |  | inactive: -8.14%
3 | CC(C)CCn1c(=O)c(C(=O)Nc2ccccc2S(N)(=O)=O)c(O)c2ccccc21 | inconclusive: 2.51 µM [inhibitor, full curve] and inconclusive: 7.08 µM [inhibitor, partial curve] | 
4 | Cc1ccc(-c2cc(C(=O)N/N=C/c3c(C)nn(C)c3C)c3ccccc3n2)cc1C | active: 35.5 µM | 
5 | Cc1cc(=O)oc2c3c(cc(OCC(=O)NCc4ccco4)c12)OC(C)(C)CC3 | inconclusive: 3.98 µM [inhibitor, partial curve] | 
6 | O=C(Nc1ccc(Cl)cc1)N1CCCN(Cc2ccccc2F)C1 | active: 10 µM | 
7 | NC(=O)c1nsc(C(=O)N(c2ccccc2)C(C(=O)NCc2ccc(F)cc2)c2ccco2)c1N (configuration not stated) | inconclusive: 31.6 µM [inhibitor, single point] | 
8 | OC(c1cccc(Cl)c1)(c1cccc(Cl)c1)C1CN2CCC1CC2 (configuration not stated) | active: 15.8 µM | 
9 | O=C(O)c1cccc2c1C(=O)N(CC1CCCO1)C2 (configuration not stated) |  | inactive: 8.89%
10 | O=C(NCCCN1CCCC1=O)c1cccnc1 |  | inactive: 15.3%
11 | Cc1ccc(S(=O)(=O)N(C)C)cc1NC(=O)COC(=O)c1ccc2c(c1)OCO2 | inconclusive: 31.6 µM [inhibitor, single point] | 
12 | CCOc1ccc(N/C(C)=C/C(=O)c2ccc3c(c2)OCCO3)cc1 | inconclusive: 8.91 µM [inhibitor, partial curve] | 
13 | O=C(Nc1ccc(Cl)cc1)c1ccc(S(=O)(=O)N2CCOCC2)cc1 |  | inactive: -8.86%
14 | O=C(CSc1nc2ncc(Cl)cc2[nH]1)NCCc1ccc(F)cc1 | inconclusive: 0.562 µM [inhibitor, full curve, poor fit] | 
15 | Cc1ccc(C)c(N(C(=O)CNC(=O)c2ccco2)C(C(=O)NC2CCCC2)c2ccncc2)c1 (configuration not stated) |  | inactive: 12.8%
16 | Cc1n[nH]c(C)c1S(=O)(=O)N1CCC(C(=O)N2CCn3c2nc2ccccc23)CC1 | inconclusive: 17.8 µM [inhibitor, single point] | 
17 | CC1CN(C(NC(=O)C(C)(C)C)C(Cl)(Cl)Cl)CC(C)O1 (configuration not stated) |  | inactive: 1.27%
18 | CCn1c(=S)sc2c(=O)n(CC(=O)Nc3cc(OC)ccc3OC)c(C)nc21 |  | inactive: -17.2%
19 | Brc1ccccc1-n1nnc(-c2ccnc3ccccc23)n1 | inconclusive: 12.6 µM [inhibitor, single point] | 
20 | COc1ccc(NC(=O)/C(Cl)=C(/Cl)S(=O)(=O)Cc2ccc(C)cc2)cn1 | active: 2.51 µM | 
21 | O=C(NC1CCCC1)c1ccc(CN2CCOCC2)cc1 |  | inactive: 11.7%
22 | Nc1nnc(COc2ccccc2)s1 |  | inactive: -7.55%
23 | CCOc1ccc(-c2nc(CSc3nnc(C)s3)cs2)cc1OC | inconclusive: 20 µM [inhibitor, single point] | 
24 | O=C1c2ccccc2C(=O)c2c1cccc2N1CCN(C/C=C/c2ccccc2)CC1 | active: 11.2 µM | 
25 | CCSc1nc(-c2cccs2)nc2ccccc12 | active: 3.98 µM | 
26 | Cc1cc(N2CCN(C(=O)/C=C/C(=O)O)CC2)c2ccccc2n1 |  | inactive: -0.699%

Row | Compound | Potency | activity change, negative = inhibition
27 | COc1ccccc1N1CCN(C(=O)C2CCCN(S(=O)(=O)c3ccc4c(c3)CCCN4C(C)=O)C2)CC1 (configuration not stated) | active: 10 µM | 
28 | C/C(=N/NC(=O)c1ccc(Br)s1)c1cccnc1 | inconclusive: 14.1 µM [inhibitor, single point] | 
29 | CC(C)(c1ccccc1)c1ccc(OCC(O)CNC2CCN(Cc3ccccc3)CC2)cc1 (configuration not stated) | active: 8.91 µM | 
30 | CCc1ccc(NC(=O)CSc2nc(=O)n(CCCN3CCOCC3)c3c2CCC3)cc1 | inconclusive: 31.6 µM [inhibitor, partial curve, poor fit] | 
31 | N/C(=N\OC(=O)c1ccc(Br)o1)c1ccccn1 |  | inactive: 17.9%
32 | CCOC(=O)C1Nc2ccc(C(F)(F)F)cc2C2c3ccccc3CC12 (configuration not stated) | inconclusive: 12.6 µM [inhibitor, partial curve] | 
33 | Cc1cccn2cc(CNC(=O)c3ccc(Br)o3)nc12 |  | inactive: 9.75%
34 | Cc1ccc2c(c1)c1cccc3c1n2CCN3CCC(N)=O | inconclusive: 10 µM [inhibitor, partial curve] | 
35 | CC(C)NS(=O)(=O)c1ccc(CCC(=O)Nc2ccc3c(c2)OCCO3)cc1 |  | inactive: 16.8%
36 | Cc1cc2c(cc1C)NC(c1cccnc1)C1=C(CC(C)(C)CC1=O)N2 (configuration not stated) | inconclusive: 3.55 µM [inhibitor, partial curve] | 
37 | Cc1nc2c3ccccc3nc(SCC(=O)c3ccc(Cl)cc3)n2n1 | active: 25.1 µM | 
38 | O=C(O)C1C2CCC(CC2)C1C(=O)O (configuration not stated) |  | inactive: 21.6%
39 | O=C(CNS(=O)(=O)c1ccc(Br)cc1)N1CCN(Cc2ccccc2)CC1 | inconclusive: 2 µM [inhibitor, partial curve] | 
40 | OCCC1CN(Cc2cnc(-c3ccc(Cl)cc3)nc2)CCN1C1CCCC1 (configuration not stated) | active: 7.08 µM | 
41 | O=C(COC(=O)c1cncc(Br)c1)Nc1ccc(F)c(F)c1F | inconclusive: 8.91 µM [inhibitor, partial curve] | 
42 | O=C(NNc1nc2ccccc2s1)Nc1ccccc1 |  | inactive: 13.1%
43 | O=C(NC1CCCC1)C(c1ccc(N2CCOCC2)cc1)N(Cc1ccccc1)C(=O)c1ccco1 (configuration not stated) |  | inactive: 17.6%
44 | COCCCNC(=S)NNC(=O)Cn1nc(C)c(Br)c1C |  | inactive: 3.18%
45 | Cc1ccc(S(=O)(=O)N2CCOCC2)cc1C(=O)N1c2ccccc2Sc2ccccc21 | active: 10 µM | 
46 | Cc1noc(/C=C/c2ccco2)c1S(=O)(=O)N1CCC(C(=O)N(C)Cc2ccccc2)CC1 | inconclusive: 10 µM [inhibitor, partial curve] | 
47 | Cc1cccc2cc(C3CC(c4ccco4)=NN3S(=O)(=O)c3ccccc3)c(Cl)nc12 (configuration not stated) | inconclusive: 31.6 µM [inhibitor, single point] | 
48 | CC(C)Cc1cc(CN2CCC(CO)(Cc3ccccc3)CC2)[nH]n1 |  | inactive: -10.1%
49 | Cc1cccc2c(N=Nc3ccc(S(=O)(=O)Nc4ccc(Cl)cc4)cc3[N+](=O)[O-])c(O)[nH]c12 | inconclusive: 31.6 µM [inhibitor, single point] | 
50 | Cc1ccc2cccc(NC(=S)NC(=O)c3ccn(C)n3)c2n1 | active: 31.6 µM | 
51 | COc1ccc(Nc2nc(C)cc(=O)[nH]2)cc1 |  | inactive: 7.65%
52 | Cc1ccc2c(c1)oc(=O)n2CC(=O)c1ccccc1 |  | inactive: -9.86%

Row | Compound | Potency | activity change, negative = inhibition
53 | Cc1c(C(=O)NCc2cccnc2)sc2nc(-c3ccc(F)cc3)cn12 | active: 11.2 µM | 
54 | COc1cc(NC(=O)CSc2c3c(nc4ccccc24)CCC3)cc(OC)c1OC | inconclusive: 3.55 µM [inhibitor, full curve] | 
55 | CCN(CC)c1nc2cc(OC)ccc2cc1C#N | inconclusive: 20 µM [inhibitor, partial curve] | 
56 | CCCC(C(=O)NC(C)(C)C)N(C(=O)c1snc(C(N)=O)c1N)c1ccc2c(c1)OCCO2 (configuration not stated) | inconclusive: 25.1 µM [inhibitor, partial curve] | 
57 | CCC1=C/C(=C/c2sc3ccccc3[n+]2CC)CC(C)(C)C1 | inconclusive: 10 µM [inhibitor, partial curve] | 
58 | CNC(=S)NC(CC(=O)OC)c1ccc2c(c1)OCO2 (configuration not stated) |  | inactive: 12.8%
59 | CCOc1ccc(/C=C/C(=O)c2ccc(-c3ccccc3)cc2)cc1 |  | inactive: 28.9%
60 | COc1ccc(Cl)cc1NC(=O)C/C(C)=N/NC(=O)CCc1ccccc1 | inconclusive: 12.6 µM [inhibitor, single point] | 
61 | COc1ccc(C(=O)N2CCN(c3ccc(NC(=O)Cc4ccccc4)cc3)CC2)cc1 |  | inactive: 4.47%
62 | CC12CN3CCN(C1)CC(C)(C3)C2=NN |  | inactive: -4.66%
63 | COc1ccc2c(=O)c3c(=O)n(Cc4ccco4)c(-c4ccco4)nc3oc2c1 |  | inactive: -27.8%
64 | Cc1ccc(S(=O)(=O)/N=C(\Sc2ccccc2)c2ccccc2)cc1 | inconclusive: 14.1 µM [inhibitor, single point] | 
65 | CCn1c(NC(=O)C2CCCCC2)nc2ccccc21 | inconclusive: 8.91 µM [inhibitor, single point] | 
66 | COc1ccccc1Nc1nc2nonc2nc1N1CCC(C)CC1 | inconclusive: 1 µM [inhibitor, partial curve] | 
67 | O=C1CSC(=NC2CCCCC2)N1 | inconclusive: 0.316 µM [inhibitor, partial curve, poor fit] | 
68 | CC[C@]12c3[nH]c4ccc(Cl)cc4c3CCN1C(=O)[C@@H](CC(=O)NCc1ccco1)C[C@@H]2C(=O)N1CCN(C(=O)c2ccco2)CC1 | inconclusive: 20 µM [inhibitor, single point] | 
69 | O=C1CCCc2c1[nH]c1c(Br)cccc21 |  | inactive: -17.9%
70 | Cc1cc2cc3c(cc2nc1SCC(=O)N1c2ccccc2CC1C)OCO3 (configuration not stated) | active: 3.98 µM | 
71 | O=C(Cn1cc(C(=O)C2CC2)c2ccccc21)NCc1ccc2c(c1)OCO2 | inconclusive: 0.501 µM [inhibitor, full curve, poor fit] | 
72 | O=C(CN1CCN(c2ccccn2)CC1)Nc1ccc(F)cc1F |  | inactive: 13.7%
73 | CN1/C(=C\C(=O)c2cncc(Br)c2)C(C)(C)c2ccccc21 | inconclusive: 31.6 µM [inhibitor, single point] | 
74 | COc1cc(C(=O)Nc2ccncc2)c([N+](=O)[O-])cc1OC |  | inactive: -8.09%
75 | COc1cc(/C=N/NC(=O)CSc2cc(C)c(Br)cc2C)ccc1O | inconclusive: 8.91 µM [inhibitor, partial curve] | 
76 | CCCCC(=O)Nc1nc2ccc(C(=O)OC)cc2s1 | inconclusive: 11.2 µM [inhibitor, partial curve] | 
77 | Cc1cc(N2CCCCC2)nc(SCC(=O)c2ccccc2)n1 | inconclusive: 20 µM [inhibitor, single point] | 
